Test results as given in the supplement of paper PMC9446081.
Hit rate of the full screen: of about 39,000 compounds, about 220 (0.56%) showed activity. Some of the results follow.

System: Escherichia coli K-12 BW25113
Assay: relative growth (OD600 normalised to plate interquartile mean) (fraction); higher = less growth inhibition, active = 0.2 or less
Conditions: 50 µM; LB; incubation time: overnight (16-24 h)
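Also: static incubation at 37 °C against the wild-type strain, values averaged over two biological replicates.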

Row | SMILES | relative growth
1 | O=C1Sc2cccc3cccc1c23 | inactive: 0.99
2 | CC(=O)O[C@@H]1C[C@H]2[C@@]3(C)CC[C@@H](OC(=O)CC(=O)O)C(C)(C)[C@@H]3CC[C@@]2(C)[C@]2(C)CC[C@](O)([C@]3(C)CC[C@H](C(C)(C)O)O3)[C@@H]12 | inactive: 0.955
3 | Cc1noc(C)c1NC(=O)N(C)C[C@H]1OCCCC[C@H](C)Oc2ccc(NC(=O)Nc3ccc(F)cc3)cc2C(=O)N([C@@H](C)CO)C[C@@H]1C | inactive: 0.987
4 | C[C@@H]1CN([C@@H](C)CO)C(=O)c2cc(NC(=O)Nc3ccc(F)cc3)ccc2O[C@@H](C)CCCCO[C@@H]1CN(C)S(=O)(=O)c1ccc(Cl)cc1 | inactive: 1.04
5 | NCc1ccc(C(=O)O)cc1 | inactive: 1.02
6 | C[C@H](CO)N1C[C@H](C)[C@H](CN(C)C(=O)C2CCCCC2)OCCCC[C@H](C)Oc2ccc(NC(=O)CCC(F)(F)F)cc2C1=O | inactive: 0.991
7 | C[C@@H]1CN([C@@H](C)CO)S(=O)(=O)c2ccc(C#Cc3ccc(F)cc3)cc2O[C@@H]1CN(C)CC1CC1 | inactive: 0.979
8 | C[C@@H]1CCCCO[C@H](CN(C)S(=O)(=O)c2cccs2)[C@H](C)CN([C@@H](C)CO)C(=O)c2cc(NS(C)(=O)=O)ccc2O1 | inactive: 1.02
9 | C[C@@H]1CN([C@H](C)CO)C(=O)Cc2cc(NC(=O)Nc3ccccc3)ccc2O[C@@H]1CN(C)S(=O)(=O)c1cn(C)cn1 | inactive: 0.991
10 | COc1ccccc1-c1ccc2c(c1)O[C@H](CN(C)S(=O)(=O)c1ccccc1)[C@H](C)CN([C@@H](C)CO)S2(=O)=O | inactive: 1.01
11 | CC(C=CC=C(C)C=CC1=C(C)CCCC1(C)C)=CC=CC=C(C)C=CC=C(C)C=CC1=C(C)CCCC1(C)C [beta-CAROTENE [2mM]] | inactive: 0.986
12 | CCOC(=O)N1CCN([C@H](c2ccc(OC)cc2)c2cc(CC)sc2NC(=O)c2ccccc2)CC1 | inactive: 1.02
13 | COc1ccc(S(=O)(=O)N(C)C[C@H]2Oc3cc(C4=CCCC4)ccc3S(=O)(=O)N([C@@H](C)CO)C[C@@H]2C)cc1 | inactive: 1.02
14 | O=C(NO)c1cccc(C(=O)N/N=C/[C@H](O)[C@@H](O)[C@H](O[C@@H]2O[C@H](CO)[C@H](O)[C@H](O)[C@H]2O)[C@H](O)CO)c1 | inactive: 0.987
15 | COc1cc2c(c3ccccc13)OC(C)(C)C=C2 | inactive: 0.89
16 | CC(C)NC(=O)Nc1ccc2c(c1)CC(=O)N([C@H](C)CO)C[C@@H](C)[C@@H](CN(C)S(=O)(=O)c1ccc(Cl)cc1)O2 | inactive: 1
17 | CCNC1CC(C)S(=O)(=O)c2sc(S(N)(=O)=O)cc21.Cl (centres undefined) | inactive: 1.11
18 | Cc1noc(C)c1S(=O)(=O)N(C)C[C@H]1Oc2ccc(NC(=O)Nc3ccccc3)cc2C(=O)N([C@H](C)CO)C[C@@H]1C | inactive: 0.967
19 | C[C@@H]1CN([C@@H](C)CO)S(=O)(=O)c2ccc(C#CC3CCCC3)cc2O[C@@H]1CN(C)Cc1cncnc1 | inactive: 1
20 | O=C(C[C@@H]1CC[C@@H]2[C@H](COC[C@H](O)CN2S(=O)(=O)c2ccc(Cl)cc2)O1)NCCN1CCCC1 | inactive: 0.991
21 | COc1ccc(S(=O)(=O)Nc2cccc3c2O[C@H](CN(C)S(=O)(=O)c2ccc(OC)cc2)[C@@H](C)CN([C@@H](C)CO)C3=O)cc1 | inactive: 1.02
22 | COCC#Cc1cnc2c(c1)C(=O)N([C@@H](C)CO)C[C@@H](C)[C@H](CN(C)C(=O)Nc1cc(F)ccc1F)O2 | inactive: 1.01

Row | SMILES | relative growth
23 | C[C@H](CO)N1C[C@H](C)[C@H](CN(C)S(=O)(=O)c2cn(C)cn2)Oc2ccc(NS(C)(=O)=O)cc2C1=O | inactive: 1
24 | C[C@@H]1CCCCO[C@H](CN(C)C(=O)Nc2ccccc2)[C@H](C)CN([C@H](C)CO)C(=O)c2cc(NC(=O)CCC(F)(F)F)ccc2O1 | inactive: 0.999
25 | C[C@H](CO)N1C[C@H](C)[C@H](CN(C)S(=O)(=O)c2cn(C)cn2)Oc2ncc(C3=CCCC3)cc2C1=O | inactive: 1.03
26 | C[C@@H]1CCCCO[C@H](CN(C)Cc2ccc(C(=O)O)cc2)[C@H](C)CN([C@H](C)CO)C(=O)c2cc(NC(=O)Nc3ccc(C(F)(F)F)cc3)ccc2O1 | inactive: 0.939
27 | Cc1noc(C)c1NC(=O)Nc1ccc2c(c1)CC(=O)N([C@H](C)CO)C[C@@H](C)[C@@H](CN(C)C(=O)NC(C)C)O2 | inactive: 0.965
28 | CN(C)c1ccc(NC(=O)CN)cc1 | inactive: 0.968
29 | COc1ccc(CNC(=O)N(C)C[C@@H]2OCc3ccccc3-c3c(n(C)c4ccccc34)C(=O)N([C@H](C)CO)C[C@H]2C)cc1 | inactive: 1.01
30 | COc1ccc(CN(C)C[C@@H]2Oc3c(NC(=O)c4ccc(-c5nccs5)cc4)cccc3C(=O)N([C@H](C)CO)C[C@H]2C)cc1 | inactive: 1.03
31 | C[C@@H]1CCCCO[C@@H](CN(C)C(=O)Nc2ccc(C(F)(F)F)cc2)[C@H](C)CN([C@H](C)CO)C(=O)c2cc(NC(=O)C3CCCCC3)ccc2O1 | inactive: 1.02
32 | C[C@@H]1CN([C@H](C)CO)C(=O)Cc2cc(NC(=O)Nc3ccccc3)ccc2O[C@@H]1CN(C)Cc1ccc(C(F)(F)F)cc1 | inactive: 1.06
33 | NCC[C@H]1CC[C@H](NC(=O)C2CCC2)[C@@H](CO)O1 | inactive: 0.993
34 | C[C@@H]1CN([C@@H](C)CO)C(=O)Cc2cc(NC(=O)Nc3ccc4c(c3)OCO4)ccc2O[C@@H]1CN(C)C(=O)Nc1ccc(C(F)(F)F)cc1 | inactive: 0.99
35 | Cc1cc(C(=O)Nc2cccc3c2O[C@@H](CN(C)C(=O)Nc2ccccc2)[C@@H](C)CN([C@H](C)CO)C3=O)n(C)n1 | inactive: 0.974
36 | C[C@@H]1CN([C@H](C)CO)C(=O)c2cc(NS(=O)(=O)c3ccccc3)ccc2O[C@@H](C)CCCCO[C@H]1CN(C)Cc1ccc(Cl)c(Cl)c1 | inactive: 0.964
37 | C[C@@H]1CN([C@@H](C)CO)C(=O)c2cc(NC(=O)CCCN(C)C)ccc2O[C@H]1CN(C)Cc1ccc(C(=O)O)cc1 | inactive: 0.978
38 | CCN(CC)C[C@@H](O)CN | inactive: 0.976
39 | COc1ccc(S(=O)(=O)N(C)C[C@@H]2Oc3ncc(-c4ccc(F)cc4)cc3C(=O)N([C@H](C)CO)C[C@@H]2C)cc1 | inactive: 0.96
40 | C[C@@H]1CN([C@@H](C)CO)C(=O)c2cc(NC(=O)NC3CCCCC3)ccc2O[C@@H]1CN(C)S(C)(=O)=O | inactive: 0.999
41 | Nc1nc2nn[nH]c2c(=O)[nH]1 | inactive: 1.02
42 | COCC#Cc1cnc2c(c1)C(=O)N([C@H](C)CO)C[C@H](C)[C@H](CN(C)S(=O)(=O)c1ccccc1)O2 | inactive: 1.01
43 | C[C@@H]1CN([C@@H](C)CO)C(=O)Cc2cc(NC(=O)C3CC3)ccc2O[C@H]1CN(C)Cc1ccc2c(c1)OCO2 | inactive: 0.971
44 | COc1ccc(NC(=O)N(C)C[C@@H]2Oc3ccc(NS(=O)(=O)c4c(C)noc4C)cc3C(=O)N([C@H](C)CO)C[C@@H]2C)cc1 | inactive: 0.992

Row | SMILES | relative growth
45 | C[C@@H]1CN([C@@H](C)CO)C(=O)Cc2cc(NS(=O)(=O)c3ccc(F)cc3)ccc2O[C@H]1CN(C)S(=O)(=O)c1cccs1 | inactive: 0.997
46 | O=C(C[C@H]1CC[C@H]2[C@@H](COC[C@H](O)CN2C(=O)c2cnccn2)O1)N1CCN(c2ccccc2)CC1 | inactive: 1.01
47 | C[C@H]1CN([C@@H](C)CO)C(=O)Cc2cc(NS(=O)(=O)c3ccc(Cl)cc3)ccc2O[C@H]1CN(C)Cc1ccc(-c2ccccc2)cc1 | inactive: 0.992
48 | Cn1cnc(S(=O)(=O)N[C@@H]2CC[C@H](CC(=O)N3CCN(c4ccccc4)CC3)O[C@@H]2CO)c1 | inactive: 0.974
49 | C[C@@H]1CN([C@@H](C)CO)C(=O)c2c(c3ccccc3n2C)-c2ccccc2CO[C@H]1CN(C)Cc1ccc(C(=O)O)cc1 | inactive: 0.992
50 | CCN(CC)CC(=O)N1c2ccccc2CCc2ccc(NC(=O)c3cc(OC)c(OC)c(OC)c3)cc21 | inactive: 0.995
51 | CCc1ccc(Nc2c3c(nc4ccccc24)CCC3)cc1 | inactive: 0.805
52 | O=C(CN1CCOCC1)NCC[C@H]1CC[C@H](NC(=O)Nc2ccccc2)[C@@H](CO)O1 | inactive: 1
53 | C[C@@H]1CCCCO[C@H](CN(C)C(=O)CCC(F)(F)F)[C@@H](C)CN([C@@H](C)CO)C(=O)c2cc(NC(=O)Cc3ccccc3)ccc2O1 | inactive: 1
54 | COCC(=O)N1C[C@H](C)[C@H](OC)CN(C)C(=O)c2ccc(NC(=O)c3cc(C)on3)cc2OC[C@H]1C | inactive: 1
55 | NC(=O)C[C@H]1Sc2ccccc2NC1=O | inactive: 1.06
56 | CN1CCN(C(=O)C[C@@H]2CC[C@@H](NC(=O)c3ccc4c(c3)OCO4)[C@H](CO)O2)CC1 | inactive: 1
57 | N[C@@H](CCC(=O)N[C@@H](CS[N+][O-])C(=O)NCC(=O)O)C(=O)O | inactive: 1.02
58 | O=S1(=O)CC[C@H](N2CCOCC2)C1 | inactive: 0.966
59 | COC(=O)[C@@H](N)CS | inactive: 1
60 | O=C(C[C@@H]1CC[C@H](NC(=O)CN2CCOCC2)[C@@H](CO)O1)NCCc1ccncc1 | inactive: 0.996
61 | Cc1noc(C)c1NC(=O)N(C)C[C@H]1OCCCC[C@@H](C)Oc2ccc(NC(=O)Nc3ccc4c(c3)OCO4)cc2C(=O)N([C@H](C)CO)C[C@@H]1C | inactive: 1.03
62 | COCCNC(=O)CCC(=O)NN=c1nc2ccccc2c2nc(C)[nH]n12 | inactive: 0.987
63 | NCc1nnnn1-c1ccc(F)cc1 | inactive: 1
64 | C[C@@H]1CN([C@H](C)CO)C(=O)c2cc(NC(=O)CCCN(C)C)ccc2O[C@@H](C)CCCCO[C@H]1CN(C)CC1CCCCC1 | inactive: 1.01
